Results published in PubChem BioAssay AID1745853 (National Center for Advancing Translational Sciences (NCATS), 2022).
Some of the results follow. Shown are side measurements of this screen, not its main read-out; they come without a call.

What was measured:
Assay in all cases: Primary Screen for Target Class Profiling of Small Molecule Inhibitors of Methyltransferases
[1] = target: Glycine N-methyltransferase (Homo sapiens) (UniProt Q14749); details: purified enzyme, MTase-Glo SAH luminescence; measured here: GNMT inhibition; at 40 µM; stronger effect = lower value
Method in brief: (§1)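 Each enzyme was assayed with SAM and its substrate. SAH formation detected by MTase-Glo luminescence; single-point 40 uM screen[…].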

[2] = target: Guanidinoacetate N-methyltransferase (Homo sapiens) (UniProt Q14353); details: purified enzyme, MTase-Glo SAH luminescence; measured here: GAMT inhibition; at 40 µM; stronger effect = lower value
Method in brief: as §1

[3] = target: Histamine N-methyltransferase (Homo sapiens) (UniProt P50135); details: purified enzyme, MTase-Glo SAH luminescence; measured here: HNMT inhibition; at 40 µM; stronger effect = lower value
Method in brief: as §1

[4] = target: Nicotinamide N-methyltransferase (Homo sapiens) (UniProt P40261); details: purified enzyme, MTase-Glo SAH luminescence; measured here: NNMT inhibition; at 40 µM; stronger effect = lower value
Method in brief: as §1

[5] = target: Phenylethanolamine N-methyltransferase (Homo sapiens) (UniProt P11086); details: purified enzyme, MTase-Glo SAH luminescence; measured here: PNMT inhibition; at 40 µM; stronger effect = lower value
Method in brief: as §1
On the % scale 0 is the no-effect control and ±100 the full control effect.

SMILES | activity change, negative = inhibition [1] | activity change, negative = inhibition [2] | activity change, negative = inhibition [3] | activity change, negative = inhibition [4] | activity change, negative = inhibition [5]
Cc1ccc(CN2C(=O)c3cc4ccccc4n3CC2(C)C(=O)NCCC(C)C)o1 (stereo not drawn) | -1.87% | 3.73% | -0.7% | -6.22% | -7.36%
Cc1ccc(NC(=O)Cn2nc3n(C(C)C)c(=O)c4ccc(C(=O)NC(C)C)cc4n3c2=O)cc1 | 8.74% | 1.49% | 11.2% | 5.49% | 8.68%
CCOc1ccc(-c2cc3n(n2)CC(C)(C(=O)NC2CCCCC2)N(c2ccc(F)cc2)C3=O)cc1 (stereo not drawn) | -0.315% | 0.924% | -3.91% | 4.49% | -0.978%
Cn1c(=O)n(C)c2cc(S(=O)(=O)Nc3ccc4c(c3)OCO4)ccc21 | -1.75% | 0% | -2.1% | -12.6% | -3.44%
CCN1C(=O)c2cc(C(=O)NCCN3CCOCC3)nn2CC1(C)C(=O)NC1CCCC1 (stereo not drawn) | 4.12% | 0% | -1.12% | 6.29% | 3.81%
COCCCN1C(=O)CSc2c(c3ccccc3n2C)C1C(=O)NCc1ccccc1OC (stereo not drawn) | 9.86% | 0% | 5.05% | 1.43% | 8.02%
CN1c2cc(C(=O)N3CCN(c4ccccn4)CC3)ccc2C(=O)N2CCCCC21 (stereo not drawn) | -1.73% | -5.83% | -0.003% | -10.4% | -0.163%
CCC(C(=O)NCCC1=CCCCC1)n1ccc2cc(S(=O)(=O)N3CCCCC3)ccc21 (stereo not drawn) | 3.36% | 0.617% | -0.483% | 2.01% | 0.414%
CCc1nc(-c2ccc(OC3CCN(C(=O)Cc4c[nH]c5ccccc45)C3)cc2)no1 (stereo not drawn) | -7.29% | -2.1% | -3.37% | -5.93% | -1.51%
CCCCNC(=O)c1cc2n(n1)CC(C)(C(=O)NC1CCCCCC1)N(C)C2=O (stereo not drawn) | 4.56% | 4.9% | -2.68% | 4.37% | 0.664%
C=CCN(C)C(=O)CC1COc2ccc(C(=O)N(C)C)cc2N1C (stereo not drawn) | -1.93% | -1.77% | 0.713% | -8.69% | -5.77%
CCOC(=O)C(C)(C)Oc1ccc(Cl)cc1 | -1.88% | 7.03% | 0.763% | -4.39% | 6.1%
O=c1cc(N2CCOCC2)oc2c1ccc1ccccc12 | – | 3.83% | – | -15.6% | -3.06%
CCN1C(=O)c2cc(C(=O)NCc3ccc(F)cc3)nn2CC1(C)C(=O)NC1CCCC1 (stereo not drawn) | -3.31% | 0.213% | -11.8% | -2.36% | -0.59%
c1cnc2c(c1)ccc1cccnc12 | 4.42% | 9.76% | 8.1% | -7.08% | -0.318%
OC[C@H]1O[C@@H](OC[C@H]2O[C@@H](OCc3ccccc3)[C@H](O)[C@@H](O)[C@@H]2O)[C@H](O)[C@@H](O)[C@@H]1O | 3.86% | 4.69% | 3.67% | -5.43% | 6.5%
CC1(C(=O)NC2CCCCC2)Cn2c(ccc2-c2ccccc2)C(=O)N1Cc1ccccc1Cl (stereo not drawn) | 0.22% | 5.6% | 4.64% | 2.56% | 0.623%
O=C(O)C1Cn2cccc2C(=O)N1Cc1cccnc1 (stereo not drawn) | -1.21% | -6.81% | 0.164% | 0.68% | -0.367%
CC[C@H]1OC(=O)[C@H](C)C(O[C@H]2C[C@@](C)(OC)[C@@H](O)[C@H](C)O2)[C@H](C)[C@@H](OC2O[C@H](C)C[C@H](N(C)C)[C@H]2O)[C@](C)(O)C[C@@H](C)CN(C)[C@H](C)[C@@H](O)[C@]1(C)O (stereo partly drawn) | 9.78% | 8.77% | 11.6% | -15.1% | 1.48%

SMILES | activity change, negative = inhibition [1] | activity change, negative = inhibition [2] | activity change, negative = inhibition [3] | activity change, negative = inhibition [4] | activity change, negative = inhibition [5]
COc1ccc2c(c1)C(CN1CCN(CC(=O)OC(C)(C)C)CC1)=CC(C)(C)O2 | 1.75% | -2.18% | 0.902% | -1.7% | -8.85%
CC(C)NC[C@H](O)COc1ccc(CC(N)=O)cc1 | -7.55% | 5.66% | -0.769% | -3.92% | 2.58%
C[C@@H]1O[C@@H](O[C@H]2[C@H](O)[C@@H](O)[C@H](OC[C@H]3O[C@@H](OC(=O)[C@]45CCC(C)(C)C[C@H]4C4=CCC6[C@@]7(C)CC[C@H](O[C@@H]8OC[C@H](O)[C@H](O[C@@H]9O[C@H](CO)[C@@H](O)[C@H](O)[C@H]9O)[C@H]8O)[C@@](C)(CO)C7CC[C@@]6(C)[C@]4(C)CC5)[C@H](O)[C@@H](O)[C@@H]3O)O[C@@H]2CO)[C@H](O)[C@H](O)[C@H]1O (stereo partly drawn) | 5.22% | 2.82% | 10.9% | -9.89% | 5.44%
CCn1nc(C)cc1C(=O)NCc1cccnc1N1CCOCC1 | 1.5% | 0.633% | 2.06% | -5.79% | 12.6%
COc1ccc(N(C(=O)c2cccc(C)c2)S(=O)(=O)c2ccc3c(c2)n(C)c(=O)n3C)cc1 | -0.771% | 1.81% | 8.32% | -7.66% | 1%
COc1ccc(CNC(=O)C2CN(S(=O)(=O)C3CC3)CC23CCCCC3)cc1 (stereo not drawn) | -2.81% | -0.039% | -5.96% | -2.94% | -4.81%
CC1CCN(S(=O)(=O)c2ccc3c(ccn3CCC(=O)NCC3CCCO3)c2)CC1 (stereo not drawn) | -0.975% | -1.65% | -4.91% | -0.96% | -3.17%
CN(C)C[C@@H]1CN(Cc2ccccn2)C[C@H]1NC(=O)c1ccc(Cl)s1 | -5.52% | -6.08% | -4.09% | -20.2% | -18%
O=C1CN(Cc2cccc(Cl)c2)S(=O)(=O)c2ccccc2N1Cc1ccc(Cl)cc1 | 16.6% | 3.69% | 12.7% | 9.93% | 8.73%
COc1cccc([S+](=O)([O-])N2CCC23Cc2ccccc2NC3=O)c1 (stereo not drawn) | -1.8% | -5.34% | 1.27% | -13.6% | -2.14%
Cc1ccc(Cn2c(=O)c3ccc(C(=O)NC(C)C)cc3n3c(=O)[nH]nc23)cc1 | -4.18% | 0% | -3.89% | -16.5% | -11.5%
CCN1C(=O)c2c(C(=O)NCCc3ccccc3)ncn2CC1(C)C(=O)NC1CCCC1 (stereo not drawn) | -4.64% | -10.3% | -0.087% | -7.73% | -1.68%
COc1c2c(c(C)c3c1C(=O)OC3)OC1(C)CC(O)C34OC(OC)(CC(O)C3(C)C1C2)OC4(C)C (stereo not drawn) | -4.62% | 5.96% | -5.83% | -13.6% | 4.22%
Cn1c(=O)n(C)c2cc(S(=O)(=O)N3CCN(Cc4ccc5c(c4)OCO5)CC3)ccc21 | 0.271% | 1.04% | 0.778% | -3.83% | -1.85%
COC1(CC(C)C)NC(=O)C(O)(Cc2ccccc2)NC1=O (stereo not drawn) | 8.32% | 7.17% | 9.2% | -4.54% | 4.76%
COC(=O)c1ccc2nc(C[C@@H]3C[C@@H](C(C)C)[C@H](CNC(=O)c4cccnc4)C=C3C)[nH]c2c1 | -4.38% | 3.06% | -18.4% | -23.8% | 2.65%
COc1ccc(CCNC(=O)CCc2nnc3n(CC(C)C)c(=O)c4ccccc4n23)cc1OC | -0.913% | 3.99% | 3.87% | -34% | -1.36%
CO[C@@]1(NC(=O)CSCC#N)C(=O)N2C(C(=O)O)=C(CSc3nnnn3C)CS[C@@H]21 | -3.72% | 12.6% | 8.27% | 0.61% | 5.54%
